In all, about 33,000 sequences were measured (“E-score (-0.5 to 0.5)”: median about -0.012, highest 2% from about 0.29 on). Some of the results follow.
Target: T1, Ybr033w (UniProt P38073)
T1 sequence: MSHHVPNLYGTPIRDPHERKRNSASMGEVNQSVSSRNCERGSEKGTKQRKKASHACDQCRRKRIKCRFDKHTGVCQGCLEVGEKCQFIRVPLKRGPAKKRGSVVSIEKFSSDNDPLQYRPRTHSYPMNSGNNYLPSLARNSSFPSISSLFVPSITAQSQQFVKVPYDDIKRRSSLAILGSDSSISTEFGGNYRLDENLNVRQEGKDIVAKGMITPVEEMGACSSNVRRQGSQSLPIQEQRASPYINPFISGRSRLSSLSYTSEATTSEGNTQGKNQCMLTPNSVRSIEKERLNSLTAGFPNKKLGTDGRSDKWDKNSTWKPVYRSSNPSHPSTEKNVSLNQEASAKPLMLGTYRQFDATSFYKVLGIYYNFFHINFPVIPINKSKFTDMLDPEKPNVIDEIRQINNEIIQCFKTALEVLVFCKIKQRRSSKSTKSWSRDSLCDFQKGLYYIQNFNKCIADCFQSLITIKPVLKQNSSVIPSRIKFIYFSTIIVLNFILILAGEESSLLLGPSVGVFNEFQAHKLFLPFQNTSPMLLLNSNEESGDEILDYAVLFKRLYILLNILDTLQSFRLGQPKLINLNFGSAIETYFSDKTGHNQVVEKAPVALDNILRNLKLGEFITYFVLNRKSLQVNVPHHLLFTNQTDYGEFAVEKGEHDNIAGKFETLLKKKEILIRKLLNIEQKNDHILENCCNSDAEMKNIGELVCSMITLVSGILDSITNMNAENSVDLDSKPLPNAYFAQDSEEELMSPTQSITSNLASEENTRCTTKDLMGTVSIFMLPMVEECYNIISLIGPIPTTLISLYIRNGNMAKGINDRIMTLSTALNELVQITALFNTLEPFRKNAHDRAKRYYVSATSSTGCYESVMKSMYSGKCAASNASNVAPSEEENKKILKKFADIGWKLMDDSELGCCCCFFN
Test: PBM E-score (8-mer binding enrichment) (E-score (-0.5 to 0.5)); higher = stronger / more preferred TF binding; most listed sequences are background and not binding sites
Details: protein concentration: 200 nM; construct: GST-full length
Outline: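 Yeast transcription factors carrying a GST tag, as full-length proteins or DNA-binding domains, were produced by PURExpress in vitro transcription/translation. About 100-200 nM protein was applied to universal all-10-mer Agilent arrays, double-stranded by primer extension on fresh or once-stripped slides. Bound protein was detected with fluorescent anti-GST, and scans were normalised with masliner. The Universal PBM Analysis Suite gave each ungapped eight-base word, pooled with its reverse complement, an E-score, a modified Wilcoxon-Mann-Whitney statistic.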

| Sequence | PBM E-score |
| --- | --- |
| GCCAGAAC | -0.0693 |
| CTTGGCAC | 0.116 |
| ACGTTTGA | 0.0911 |
| CTTGGCCA | -0.0338 |
| TATAGCGA | -0.114 |
| GGGCCATA | 0.044 |
| CTTCGCAA | -0.0153 |
| CACCAGCC | -0.00306 |
| CTTTGACA | 0.106 |
| ACGGATAC | 0.154 |
| ACCGGTAG | -0.189 |
| TCTCTTAA | 0.0438 |
| AAACATGA | 0.176 |
| AAAGTGGC | -0.0285 |
| GATGGGTA | 0.0515 |
| AGTGTCCC | -0.178 |
| AATAATCG | 0.13 |
| ATCAGGTC | -0.0388 |
| GCTCATAA | -0.0365 |
| CCGTCCCA | -0.0863 |
| ATGCTCGA | 0.0442 |
| ATGATAAT | 0.264 |
| GGCCTGGA | -0.302 |
| CACAAGTC | -0.11 |
| GCCTTTAA | -0.00642 |

| Sequence | PBM E-score |
| --- | --- |
| AATTCGGC | -0.0451 |
| CGTCATAC | 0.202 |
| GAGAGAGA | -0.0363 |
| GCTTCGAA | 0.0658 |
| AGACAACT | 0.123 |
| CTGCGCGA | -0.00207 |
| ATATGTGG | 0.173 |
| ATCATTCA | 0.144 |
| CGATTAGC | -0.0421 |
| AACGGATC | 0.174 |
| CGCTAGAG | -0.115 |
| CTTCAGGC | -0.133 |
| CTACCGTC | -0.045 |
| CTAGAGAG | 0.0339 |
| GTGTAAGA | 0.124 |
| GGAACGAA | 0.104 |
| ACCCCTTA | -0.138 |
| CAAGGGTG | -0.113 |
| GAGGTGTA | -0.141 |
| CGGGTTAC | -0.256 |
| ACTTTGCT | 0.00161 |
| GCGGATTA | 0.285 |
| TAAGGTAA | 0.0298 |
| GCTGCAGC | -0.127 |
| CCGCGAGC | -0.194 |

| Sequence | PBM E-score |
| --- | --- |
| GCGTTACC | -0.142 |
| AATGTGCC | -0.0476 |
| GGGAGACA | -0.151 |
| GTGTCGCA | -0.165 |
| TCCTTTAA | 0.132 |
| GAGTAGCC | -0.119 |
| CCCGCGTC | 0.021 |
| CGAGTGAC | -0.0696 |
| ACTGTGGG | -0.085 |
| ATATAATG | 0.0733 |
| CCGGGCAA | -0.164 |
| CGTAGATA | 0.0341 |
| AGATTGCA | 0.0779 |
| GCGACACA | -0.213 |
| ATCGTAGG | 0.0186 |
| CACCAGTC | -0.196 |
| TACTCGAA | 0.0219 |
| AAAGCATC | 0.0259 |
| AAGTAAGG | 0.129 |
| AGTTCCCC | -0.193 |
| AATCGACC | 0.0467 |
| ATGGGGAA | 0.0504 |
| GTGATCAC | -0.181 |
| AGTGAAGC | -0.0225 |
| AAGGGGGC | -0.386 |

| Sequence | PBM E-score |
| --- | --- |
| AAATCTGG | 0.219 |
| AGCTGAAC | -0.327 |
| GGTAAACA | 0.216 |
| AACGGTAT | -0.116 |
| CGCACAGC | -0.121 |
| CGCGGATC | -0.163 |
| AATGGGTA | 0.218 |
| GCCCCTCC | -0.264 |
| AGGACTTA | -0.174 |
| CCCAGTAC | -0.0948 |
| CCTGCATA | -0.141 |
| CGTTAAAA | -0.0301 |
| CGGGTAAG | -0.127 |
| ACTATCCC | -0.24 |
| GGAACACA | 0.149 |
| ACCCCCGG | -0.222 |
| AAGAGCGC | 0.0652 |
| CACTGCCC | -0.169 |
| AGGCGGCG | -0.224 |
| CGGCCGTC | -0.245 |
| CATCCGAA | 0.127 |
| AAAGCGGA | -0.142 |
| GCCGTATA | 0.0638 |
| CATGGAGC | -0.121 |
| GCACCTCC | -0.186 |

| Sequence | PBM E-score |
| --- | --- |
| CTTGGAGC | -0.0473 |
| ATTGTCAC | 0.0585 |
| GCCCAATA | -0.13 |
| AGAGACCG | -0.246 |
| CCTAACCA | 0.0244 |
| TCACCAGA | -0.204 |
| GGGTAGCA | -0.0817 |
| GGTCGTTA | 0.024 |
| CCCCGCTA | 0.0134 |
| ATGTTGCA | 0.101 |
| AAAGGTCA | -0.0607 |
| GTGCCACA | -0.302 |
| AGCGACGA | -0.0902 |
| TACCATAA | 0.209 |
| GGGACGAC | -0.088 |
| TACAATAA | 0.191 |
| GGCGCACA | -0.138 |
| GACGAGAA | 0.0391 |
| AGAAAAGC | 0.108 |
| TAATATCA | 0.319 |
| CGTAAAGC | -0.132 |
| ATCTTACA | 0.0443 |
| CTCATCCA | -0.0476 |
| TTGGGAAA | 0.294 |
| CCCGGTAG | -0.137 |

| Sequence | PBM E-score |
| --- | --- |
| ACCGAGCC | -0.0337 |
| CCAATCGG | -0.0308 |
| TACTAGGA | 0.114 |
| AGGACACT | -0.245 |
| CCAAGAAG | -0.00972 |
| CCGCATAA | 0.273 |
| CTTTCGTC | -0.0306 |
| AAATCTTA | 0.133 |
| ACTATTCG | 0.177 |
| CTGACATA | -0.0988 |
| CGGCACTA | -0.103 |
| AGATGCGC | -0.0924 |
| GATTGCAA | 0.171 |
| ACAGTAGC | -0.0291 |
| AGAGGTCC | -0.0215 |
| CTGAGAGC | -0.319 |
| ACTATAAC | -0.00798 |
| CGAACTAC | 0.00541 |
| ACGTAGAC | -0.243 |
| GCCGACGA | -0.112 |
| CGATTCGC | -0.00036 |
| AAGTGTTG | 0.243 |
| AACCAATA | 0.244 |
| CCCCTCCG | -0.245 |
| TACAGTCA | 0.0593 |

| Sequence | PBM E-score |
| --- | --- |
| AACGAACC | 0.186 |
| CCAGTTGC | -0.152 |
| TGCCCCCA | -0.265 |
| TGAGAGCA | -0.149 |
| ACAGCGAA | 0.0602 |
| ATCATTAA | 0.313 |
| CGTGGCTA | -0.221 |
| CATCAGCA | 0.0619 |
| ACCGTTCG | -0.0246 |
| CATTGGGA | -0.0448 |
| AATCAATA | 0.334 |
| GATCCATC | -0.146 |
| CGCTCTGA | -0.0956 |
| ACGAAGAC | -0.177 |
| CCCCGGTC | -0.253 |
| ATTTGAAC | 0.243 |
| CCCGATTC | -0.00238 |
| AACAAAGT | 0.233 |
| ATAAATCC | 0.324 |
| ACACTGAC | -0.182 |
| CTTCGTCA | 0.124 |
| CGATACAC | 0.0422 |
| TACGCCAA | -0.106 |
| AAAGGGCG | -0.0478 |
| CCCGCCAC | -0.0185 |

| Sequence | PBM E-score |
| --- | --- |
| CGCCGAGA | -0.153 |
| AATATATG | 0.204 |
| ACACGGGC | -0.0889 |
| CGTCAGCA | -0.0493 |
| AGTACTCC | -0.0939 |
| GATCTAAC | 0.0567 |
| AACAGTCT | -0.123 |
| AATTTTCT | 0.145 |
| CGCCTTTA | 0.0429 |
| CAATTATA | 0.28 |
| GCTTGTGA | -0.108 |
| CCAGTCTA | -0.172 |
| CGGTAGTA | -0.0551 |
| ACGGGTGC | -0.0113 |
| GCTGCCTA | -0.162 |
| AAATCTAC | 0.233 |
| ACCTGTCA | -0.148 |
| CACCTATG | 0.0127 |
| CATGTTCC | 0.0191 |
| CTGCTCTA | 0.0563 |
| ATAGATGG | -0.0391 |
| GCGTGCTA | -0.252 |
| CGGCACGA | -0.0127 |
| ACACCTAG | -0.00194 |
| CAAGAGGC | -0.144 |

| Sequence | PBM E-score |
| --- | --- |
| ACTTAACG | -0.104 |
| CACGCTGC | -0.195 |
| CCTTCGAC | -0.134 |
| GATCTCTA | 0.0118 |
| AGGTCCAC | -0.291 |
| AAAGCGGT | 0.0159 |
| ATGTTCGC | 0.00613 |
| AAATCTGT | 0.131 |
| CAGTGTTC | 0.143 |
| AGCCCAAG | -0.135 |
| CCACTGCG | -0.00412 |
| ATCTCGTC | -0.0606 |
| AAAATAGT | 0.225 |
| ACAAGCGA | 0.0103 |
| GAGCGGCC | -0.139 |
| CCTGATAC | 0.108 |
| CGGAGAAG | -0.166 |
| CTTACGGA | -0.0917 |
| CCCACAAA | 0.0286 |
